By IC50 is meant the dose at which the fit gives 50% viability; fits outside the tested doses are given as limits. The AUC spans the tested range (256-fold, ending at the top dose) of the same fit: 1 means no effect, lower means more sensitive. A top dose marked as inferred comes from the curve model; the source does not state it. Drugs with an entry number were screened twice under separate entries, and the two screens often disagree.
Compound: O=c1[nH]c2ccccc2n1C1CCN(Cc2ccc(-c3[nH]c4cc5ncnc5cc4nc3-c3ccccc3)cc2)CC1 [AKT inhibitor VIII]
Experiment: Viability of human cancer cell lines after 72 h of drug (GDSC screen)
Details: top dose inferred
Experimental: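 Human cancer cell lines in 384-well plates, medium with 10% serum, drug for 72 h over a 256-fold dose range (nine 2-fold or five 4-fold steps up to the top dose). Adherent lines were fixed and stained with the nucleic acid dye Syto60, suspension lines read with resazurin; signal relative to control wells, capped at 0 and 100%. One two-parameter sigmoid per drug and line, fitted in a mixed model over all curves with the slope shared within a line.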

[1] = top dose 2.56 µM, screen: GDSC drug entry 171
[2] = top dose 10.24 µM, screen: GDSC drug entry 228

Row | Cell Line | AUC [1] | IC50 [1] | AUC [2] | IC50 [2]
1 | 769-P (kidney, adherent) | 0.96 | > 2560 nM | 0.89 | > 10200 nM
2 | 786-0 (kidney, adherent) | 0.768 | 883 nM | 0.767 | 3500 nM
3 | A172 (glioma, adherent) | 0.958 | > 2560 nM | 0.946 | > 10200 nM
4 | A204 (rhabdomyosarcoma, adherent) | 0.883 | > 2560 nM | 0.803 | 6910 nM
5 | A673 (rhabdomyosarcoma, adherent) | 0.976 | > 2560 nM | 0.917 | > 10200 nM
6 | BB49-HNC (head and neck, adherent) | 0.951 | > 2560 nM | 0.966 | > 10200 nM
7 | BC-3 (B-cell lymphoma, suspension) | 0.969 | > 2560 nM | 0.813 | 4810 nM
8 | BCPAP (thyroid, adherent) | 0.989 | > 2560 nM | 0.957 | > 10200 nM
9 | BEN (non-small cell lung carcinoma, adherent) | 0.94 | > 2560 nM | 0.908 | > 10200 nM
10 | BFTC-909 (kidney, adherent) | 0.928 | > 2560 nM | 0.927 | > 10200 nM
11 | BHY (head and neck, adherent) | 0.94 | > 2560 nM | 0.897 | > 10200 nM
12 | BICR31 (head and neck, adherent) | 0.947 | > 2560 nM | 0.962 | > 10200 nM
13 | BPH-1 (prostate, adherent) | 0.982 | > 2560 nM | 0.708 | 2660 nM
14 | CAL-54 (kidney, adherent) | 0.868 | > 2560 nM | 0.902 | > 10200 nM
15 | CAL-148 (breast, suspension) | 0.935 | > 2560 nM | 0.9 | > 10200 nM
16 | CAMA-1 (breast, adherent) | 0.936 | > 2560 nM | 0.857 | > 10200 nM
17 | CFPAC-1 (pancreas, adherent) | 0.921 | > 2560 nM | 0.917 | > 10200 nM
18 | CHP-134 (neuroblastoma, suspension) | – | – | 0.868 | > 10200 nM
19 | COLO-679 (melanoma, adherent) | 0.946 | > 2560 nM | 0.904 | > 10200 nM
20 | COLO-792 (melanoma, adherent) | 0.984 | > 2560 nM | 0.933 | > 10200 nM
21 | COLO-829 (melanoma, adherent) | 0.93 | > 2560 nM | 0.881 | > 10200 nM
22 | COR-L105 (lung adenocarcinoma, adherent) | 0.92 | > 2560 nM | 0.786 | 5480 nM
23 | COR-L303 (small cell lung carcinoma, suspension) | – | – | 0.781 | 4080 nM
24 | COR-L311 (small cell lung carcinoma, suspension) | – | – | 0.665 | 1910 nM

Row | Cell Line | AUC [1] | IC50 [1] | AUC [2] | IC50 [2]
25 | Caov-3 (ovary, adherent) | 0.988 | > 2560 nM | 0.932 | > 10200 nM
26 | Capan-2 (pancreas, adherent) | 0.945 | > 2560 nM | 0.89 | > 10200 nM
27 | ChaGo-K-1 (non-small cell lung carcinoma, adherent) | 0.93 | > 2560 nM | 0.794 | 5570 nM
28 | ECC12 (stomach, suspension) | 0.898 | > 2560 nM | – | –
29 | ES3 (Ewing sarcoma, adherent) | 0.95 | > 2560 nM | 0.73 | 3010 nM
30 | G-401 (kidney, adherent) | 0.917 | > 2560 nM | 0.783 | 4780 nM
31 | GAMG (glioma, adherent) | 0.872 | > 2560 nM | 0.883 | > 10200 nM
32 | GCT (soft tissue, adherent) | 0.98 | > 2560 nM | 0.983 | > 10200 nM
33 | GP5d (large intestine, adherent) | 0.943 | > 2560 nM | 0.801 | 4400 nM
34 | H2591 (mesothelioma, adherent) | 0.942 | > 2560 nM | 0.939 | > 10200 nM
35 | H2803 (mesothelioma, adherent) | 0.933 | > 2560 nM | 0.964 | > 10200 nM
36 | H2804 (mesothelioma, adherent) | 0.958 | > 2560 nM | 0.867 | > 10200 nM
37 | H2818 (mesothelioma, adherent) | 0.98 | > 2560 nM | 0.979 | > 10200 nM
38 | H-EMC-SS (chondrosarcoma, adherent) | 0.971 | > 2560 nM | 0.915 | > 10200 nM
39 | HCC1599 (breast, suspension) | 0.955 | > 2560 nM | 0.633 | 1580 nM
40 | HCC1806 (breast, adherent) | – | – | 0.91 | > 10200 nM
41 | HCC-33 (small cell lung carcinoma, adherent) | 0.964 | > 2560 nM | 0.919 | > 10200 nM
42 | HEL (acute myeloid leukaemia, semi-adherent) | 0.986 | > 2560 nM | 0.844 | 5580 nM
43 | HH (T-cell leukaemia, suspension) | 0.825 | 2270 nM | 0.431 | 388 nM
44 | HLE (liver, adherent) | 0.903 | > 2560 nM | 0.988 | > 10200 nM
45 | HO-1-N-1 (head and neck, adherent) | 0.978 | > 2560 nM | 0.973 | > 10200 nM
46 | HPAC (pancreas, adherent) | 0.893 | > 2560 nM | 0.848 | > 10200 nM
47 | HPAF-II (pancreas, adherent) | 0.91 | > 2560 nM | 0.863 | > 10200 nM
48 | HSC-3 (head and neck, adherent) | 0.978 | > 2560 nM | 0.972 | > 10200 nM

Row | Cell Line | AUC [1] | IC50 [1] | AUC [2] | IC50 [2]
49 | HT-144 (melanoma, adherent) | 0.96 | > 2560 nM | 0.977 | > 10200 nM
50 | HTC-C3 (thyroid, adherent) | 0.944 | > 2560 nM | 0.856 | 9830 nM
51 | HeLa (cervix, adherent) | 0.982 | > 2560 nM | 0.965 | > 10200 nM
52 | Hs940-T (melanoma, adherent) | 0.917 | > 2560 nM | 0.876 | > 10200 nM
53 | Hs-445 (Hodgkin lymphoma, suspension) | 0.942 | > 2560 nM | 0.757 | 3300 nM
54 | IM-95 (stomach, adherent) | 0.77 | 1040 nM | 0.636 | 1570 nM
55 | IST-MES1 (mesothelioma, adherent) | 0.983 | > 2560 nM | 0.928 | > 10200 nM
56 | J82 (bladder, adherent) | 0.919 | > 2560 nM | 0.919 | > 10200 nM
57 | JAR (urogenital system, adherent) | 0.988 | > 2560 nM | 0.876 | 9840 nM
58 | K-562 (chronic myeloid leukaemia, suspension) | 0.988 | > 2560 nM | 0.75 | 3260 nM
59 | KG-1 (acute myeloid leukaemia, suspension) | 0.974 | > 2560 nM | 0.824 | 5230 nM
60 | KNS-81-FD (glioma, adherent) | 0.97 | > 2560 nM | 0.967 | > 10200 nM
61 | KOSC-2 (head and neck, adherent) | 0.959 | > 2560 nM | – | –
62 | KP-4 (pancreas, adherent) | 0.98 | > 2560 nM | 0.974 | > 10200 nM
63 | KP-N-YS (neuroblastoma, adherent) | 0.975 | > 2560 nM | 0.835 | 8140 nM
64 | KYSE-150 (oesophagus, adherent) | 0.947 | > 2560 nM | 0.962 | > 10200 nM
65 | KYSE-180 (oesophagus, adherent) | 0.949 | > 2560 nM | 0.964 | > 10200 nM
66 | KYSE-270 (oesophagus, adherent) | 0.911 | > 2560 nM | 0.935 | > 10200 nM
67 | LB996-RCC (kidney, adherent) | 0.947 | > 2560 nM | 0.98 | > 10200 nM
68 | LC-2-ad (lung adenocarcinoma, adherent) | 0.936 | > 2560 nM | 0.848 | 7950 nM
69 | LNCaP-Clone-FGC (prostate, adherent) | 0.935 | > 2560 nM | 0.687 | 2320 nM
70 | LOXIMVI (melanoma, semi-adherent) | 0.983 | > 2560 nM | 0.968 | > 10200 nM
71 | LU-99A (large cell lung carcinoma, adherent) | 0.985 | > 2560 nM | 0.908 | > 10200 nM
72 | MDA-MB-157 (breast, adherent) | 0.964 | > 2560 nM | 0.922 | > 10200 nM

Row | Cell Line | AUC [1] | IC50 [1] | AUC [2] | IC50 [2]
73 | MDA-MB-453 (breast, adherent) | 0.908 | > 2560 nM | 0.538 | 820 nM
74 | MFE-319 (endometrium, adherent) | 0.919 | > 2560 nM | 0.889 | > 10200 nM
75 | MKN1 (stomach, adherent) | 0.924 | > 2560 nM | 0.952 | > 10200 nM
76 | ML-1 (thyroid, adherent) | 0.867 | > 2560 nM | 0.893 | > 10200 nM
77 | MLMA (hairy cell leukaemia, semi-adherent) | 0.967 | > 2560 nM | 0.749 | 3350 nM
78 | MOLT-13 (T-cell lymphoblastic leukaemia, suspension) | – | – | 0.685 | 1960 nM
79 | MZ7-mel (melanoma, adherent) | 0.969 | > 2560 nM | 0.884 | > 10200 nM
80 | NB7 (neuroblastoma, adherent) | 0.984 | > 2560 nM | 0.902 | > 10200 nM
81 | NCI-H196 (small cell lung carcinoma, adherent) | 0.97 | > 2560 nM | 0.792 | 4860 nM
82 | NCI-H522 (lung adenocarcinoma, adherent) | 0.9 | > 2560 nM | 0.887 | > 10200 nM
83 | NCI-H748 (small cell lung carcinoma, suspension) | 0.955 | > 2560 nM | 0.843 | > 10200 nM
84 | NCI-H1299 (large cell lung carcinoma, adherent) | 0.918 | > 2560 nM | 0.94 | > 10200 nM
85 | NCI-H1355 (lung adenocarcinoma, adherent) | 0.924 | > 2560 nM | 0.87 | > 10200 nM
86 | NCI-H1573 (lung adenocarcinoma, adherent) | 0.99 | > 2560 nM | 0.86 | 8150 nM
87 | NCI-H1793 (lung adenocarcinoma, adherent) | 0.97 | > 2560 nM | 0.971 | > 10200 nM
88 | NCI-H1915 (large cell lung carcinoma, adherent) | 0.986 | > 2560 nM | 0.959 | > 10200 nM
89 | NCI-H2030 (lung adenocarcinoma, adherent) | 0.84 | 2120 nM | 0.761 | 4120 nM
90 | NCI-H2085 (lung adenocarcinoma, adherent) | 0.912 | > 2560 nM | 0.794 | 5150 nM
91 | NCI-H2170 (lung squamous cell carcinoma, adherent) | 0.9 | > 2560 nM | 0.95 | > 10200 nM
92 | NCI-H2171 (small cell lung carcinoma, suspension) | 0.991 | > 2560 nM | 0.96 | > 10200 nM
93 | NCI-H2196 (small cell lung carcinoma, adherent) | 0.966 | > 2560 nM | 0.795 | 5050 nM
94 | NCI-H2228 (lung adenocarcinoma, adherent) | 0.784 | 1750 nM | 0.645 | 1980 nM

From the supplement of paper PMC4967469
